In article PMC12040169 (PLOS Biology, 2025):
The list shows a part of the results.

Tested on: T1, C. trachomatis L2/434/Bu expressing GFP (CTL2-GFP)
T1 construct: L2/434/Bu GFP intracellular growth in HeLa cells
Parameters: species or system HeLa; C. trachomatis total inclusion area by high-content imaging, normalised to DMSO
Conditions: total inclusion area; 28.5 h, 10 µM; inhibitor
Method in brief: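 Post-fluorescence-read fixation, DNA staining with Hoechst and high-content imaging; GFP inclusion area and number per well, and nuclei counts, used as proxies for bacterial growth and host viability.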

Row | Compound | % of control remaining
1 | CCN(CC)C(=O)c1[nH]c2ccccc2c1NS(=O)(=O)c1cc(Br)ccc1OC [CBK050113] | 111.272
2 | O=C(CCCN1C(=O)c2ccccc2C1=O)Oc1ccc(-c2ccccc2)cc1 [CBK267144] | 115.949
3 | CCC(NC(=O)Nc1cc(N2CCOCC2)ccc1Cl)c1nc(C)no1 (stereo not drawn) [CBK306526] | 97.4814
4 | O=C(COc1ccccc1)N1CCC(c2cccc(Cc3ccccc3F)n2)CC1 [CBK286211] | 100.77
5 | CN(C(=O)C1CCN(S(=O)(=O)c2cn(C)cn2)CC1)C(c1ccc(F)cc1)c1ccccn1 (stereo not drawn) [CBK060229] | 106.668
6 | O=C(Nc1cccc2cccnc12)c1ccc(Cl)c(Cl)c1 [CBK261318] | 97.0852
7 | CCN1CCC2(CC1)NC(=O)Cc1cc(OC)c(OC)c(OC)c12 [CBK039868] | 100.726
8 | CN(CCO)C(=O)CCn1c(C(F)F)cc2cccnc21 [CBK282805] | 89.5163
9 | CC(=O)NCC1CN(c2ccc3c(c2)CCN3C(=O)OC(C)(C)C)C(=O)O1 (stereo not drawn) [CBK012600] | 63.6835
10 | CCc1cc(Br)ccc1S(=O)(=O)NCCc1cccs1 [CBK045033] | 77.7038
11 | FC(F)(F)c1cccnc1Sc1nc[nH]n1 [CBK115213] | 89.6404
12 | CC(C)S(=O)(=O)n1ccn(-c2ccc(N(C)C)cc2)c1=O [CBK106600] | 81.4734
13 | CC(C)NC(=O)N1CCN2C(=O)c3cc(-c4ccc(Cl)cc4)ccc3NC(=O)[C@H]2C1 [CBK289596] | 100.121
14 | O=C(NC(=S)Nc1cccc(Cl)c1)c1cncc(Br)c1 [CBK264618] | 89.2311
15 | COc1ccc(-c2nc(-c3ccncc3)ncc2C(=O)NC2CCCCC2)cc1 [CBK291111] | 137.443
16 | O=C(Cn1cccc2cc(C3CCCNC3)nc1-2)N1CCCC1 (stereo not drawn) [CBK285086] | 101.931
17 | CCOc1ccc(C(=O)C2=C(O)C(=O)N(CCN(C)C)C2c2ccc(N(C)C)cc2)c(C)c1 (stereo not drawn) [CBK264603] | 110.448
18 | CSc1nsc(SCC(=O)OC2CC3CCC2(C)C3(C)C)n1 (stereo not drawn) [CBK268941] | 89.952
19 | COCCC(=O)Nc1ccc(N2CCNCC2)nc1 [CBK004749T] | 81.794
20 | O=C(Cc1ccc(F)cc1)NCc1nnc(-c2cccs2)o1 [CBK284640] | 108.529
21 | O=C(Cc1ccc(Cl)c(Cl)c1)N1CCCC2(CCN(Cc3ccccc3)C2)C1 (stereo not drawn) [CBK136872] | 98.8257
22 | COCCNc1cc(-c2ccco2)ncn1 [CBK090796] | 83.9828
23 | CC(C)C(=O)N1CC2(CCN(CCS(=O)(=O)c3ccccc3)CC2)c2ccccc21 [CBK126726] | 57.8204
24 | O=C1NCC2(CCN(C(=O)C3CC3)CC2)Oc2ccccc21 [CBK282918] | 77.9105
25 | Nc1ncc(-c2ccco2)nc1N1CCOCC1 [CBK063456] | 74.5403
26 | CCNS(=O)(=O)c1ccc(NS(=O)(=O)c2cc(C(=O)O)ccc2C)cc1 [CBK295296] | 92.2966

Row | Compound | % of control remaining
27 | N#Cc1ccc(NCC(=O)Nc2ncn(Cc3cccnc3)n2)cc1 [CBK306343] | 48.9476
28 | Cc1ccc(NC(=O)Nc2ccc3cc(Br)cnc3n2)c(C)c1 [CBK063269] | 100.954
29 | CC(CNC(=O)CCc1cn(C)c2ccccc12)N1CCOCC1 (stereo not drawn) [CBK281996] | 111.327
30 | COc1c(C)cc(Br)cc1C(=O)NC(=S)Nc1ccccc1N1CCN(C)CC1 [CBK267855C] | 60.737
31 | Cc1cc(C)c(-n2cccn2)c(CN2CCC(CO)C2)c1 (stereo not drawn) [CBK282915] | 100.493
32 | Cc1cc(NS(=O)(=O)c2ccc(OCCNS(C)(=O)=O)cc2)no1 [CBK268530] | 162.35
33 | CN(CCOc1ccccc1)c1nccnc1N1CCNCC1 [CBK000035F] | 88.9611
34 | CC(=O)Nc1ccc(CN(C)c2c(C)nc3c(OCC4CCCCC4)cccn23)cc1 [CBK147379] | 89.7197
35 | O=C(O)CSC1c2ccccc2Oc2ccc(F)cc21 (stereo not drawn) [CBK266462] | 94.7293
36 | Cc1ccc(NC(=O)C2CCCN2S(=O)(=O)c2ccc(F)cc2)cc1F (stereo not drawn) [CBK110164] | 40.6127
37 | Cc1ccc(-c2csc(NC(=O)CS(=O)(=O)c3ccccc3)n2)cc1 [CBK287707] | 98.8899
38 | CNc1cc(N2CCN(S(=O)(=O)N(C)C)CC2)ccc1[N+](=O)[O-] [CBK269311] | 97.8453
39 | Cc1cc(Br)ccc1NC(=O)C(=O)NC1CC1 [CBK269284] | 95.7905
40 | O=C(O)CN1CCC(Oc2nccnc2OCc2ccc(Cl)c(Cl)c2)CC1 [CBK144443] | 97.5305
41 | Cc1cccc(Cc2cccc(C3CCCN(S(=O)(=O)c4cn(C)nc4C)C3)n2)c1 (stereo not drawn) [CBK286131] | 62.5561
42 | COc1cc([N+](=O)[O-])ccc1NC(=O)CN(C)S(=O)(=O)c1ccc2ccccc2c1 [CBK267387] | 101.527
43 | O=C(O)c1sccc1S(=O)(=O)Nc1ccc(Cc2nc3ccccc3s2)cc1 [CBK295286] | 109.297
44 | c1cncc(-c2ncc(-c3ccco3)c(-c3ccco3)n2)c1 [CBK284503] | 66.1944
45 | O=C(Nc1cccc2[nH]ccc12)c1cccc(F)c1Cl [CBK159638] | 82.9759
46 | CN1CCN(c2cc(CNC(=O)c3cc(O)nc4ccccc34)ccn2)CC1 [CBK279658] | 102.159
47 | c1ccc2c(-c3cn4ccnc4c(Nc4ccc5cn[nH]c5c4)n3)cccc2c1 [CBK066346] | 87.8661
48 | CCCn1c(SCC(=O)NCc2ccc(OC)cc2)n[nH]c1=O [CBK297549] | 110.575
49 | COc1cc(CNC(=O)NC(=O)C2CCN(CCCc3ccc(Cl)c(Cl)c3)CC2)cc(OC)c1OC [CBK034858] | 106.768
50 | COc1ccccc1N1C(=O)CC(SC(=N)N/N=C(\C)c2ccc(O)cc2)C1=O (stereo not drawn) [CBK262766] | 102.954
51 | O=C(c1ccc(O)nc1)N1CCN(Cc2cc(=O)n3ccsc3n2)CC1 [CBK306098] | 60.7642
